In all, about 110,000 compounds went through this assay and about 230 (0.21%) showed an effect of 50% or more. Some of the results follow.
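Further: 30 min substrate incubation versus DMSO and 10 µM JCP410 controls.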

Chain of DPAP1 (Q8IIJ9 whole entry, looked up): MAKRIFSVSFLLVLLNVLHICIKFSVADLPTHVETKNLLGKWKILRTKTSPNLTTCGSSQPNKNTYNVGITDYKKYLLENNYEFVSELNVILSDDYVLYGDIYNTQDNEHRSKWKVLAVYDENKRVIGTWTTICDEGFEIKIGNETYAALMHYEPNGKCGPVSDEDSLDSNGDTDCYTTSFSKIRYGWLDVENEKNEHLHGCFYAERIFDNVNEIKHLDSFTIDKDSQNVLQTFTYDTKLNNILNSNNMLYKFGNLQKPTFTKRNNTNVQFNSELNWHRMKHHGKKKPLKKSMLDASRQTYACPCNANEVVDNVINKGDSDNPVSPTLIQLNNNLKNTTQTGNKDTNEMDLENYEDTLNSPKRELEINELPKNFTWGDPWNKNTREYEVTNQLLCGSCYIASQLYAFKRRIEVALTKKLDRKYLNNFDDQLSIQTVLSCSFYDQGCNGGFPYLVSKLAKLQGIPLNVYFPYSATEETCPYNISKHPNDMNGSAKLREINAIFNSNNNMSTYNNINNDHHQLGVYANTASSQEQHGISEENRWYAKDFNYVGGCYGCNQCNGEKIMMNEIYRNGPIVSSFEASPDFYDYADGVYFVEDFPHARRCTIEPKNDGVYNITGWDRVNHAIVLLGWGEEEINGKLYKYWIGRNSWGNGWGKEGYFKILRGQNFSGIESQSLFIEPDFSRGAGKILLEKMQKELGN

This assay concerns the target DPAP1 (Plasmodium falciparum, UniProt Q8IIJ9). Put plainly: primary screen, percent inhibition; read by cleavage of a fluorogenic dipeptide substrate; higher = more effect of the substance. Further details: species or system P. falciparum D10 trophozoite lysates; single well.
Turning to `Cc1sc(NC(=O)c2ccc(F)cc2)c(C(N)=O)c1C`, the “% Inhibition @ 10 uM” value is 9.41%.
Next, `CC(C)c1nc2c(c3c1[nH]c1ccccc13)C(=O)CC(C)(C)C2`: -5.59%; `Cc1nn(C(C)C(=O)N2CCN(Cc3ccc4c(c3)OCO4)CC2)c(=O)c2c1sc1ccccc12` (centres unmarked): -1.49%.
With `Cc1ccc2c(c1)N1C(=O)c3ccccc3C1C1=C(O)CC(C)(C)CC1=N2` (centres unmarked), the “% Inhibition @ 10 uM” value came out at 2.38%.
Then `COc1ccc(OCC(=O)NCc2ccccc2)cc1`, with -1.29%; and `Cc1cc(C)nc(NS(=O)(=O)c2ccc(NC(=O)COc3ccc(Br)cc3)cc2)n1`, with -0.312%.
Next, `O=C1C(Cl)=C(Nc2cccc(O)c2)C(=O)N1c1cccc(Cl)c1`: 1.35%.
In the case of `COc1ccc(NC(=O)c2cnn3c(C(F)F)cc(-c4ccc(C)cc4)nc23)cc1OC`, the “% Inhibition @ 10 uM” value worked out at 9.06%.
Then `COc1ccc(C2C3=C(O)CC(C)(C)CC3=Nc3ccccc3N2C(=O)C(C)C)cc1` (centres unmarked), with 1.4%; and `Cc1ccc(C2=NS(=O)(=O)N(C)C(C(=O)Nc3cc(C)n(CC(=O)N4CCC(C)CC4)n3)=C2)cc1`, with 3.92%.
Next, `CCc1ccc(CNC(=O)CCn2nc(-c3ccccc3)ccc2=O)cc1`: -0.0542%; `Nc1c(-c2nc(-c3cccs3)no2)nnn1-c1ccc(F)cc1`: 3.98%; `CCOc1ccc(C2(C)CC(C)(C)N(C(C)=O)c3ccccc32)cc1` (centres unmarked): 3.44%.
Next, `COC(=O)c1c(C)oc2cc(Br)c(OS(C)(=O)=O)cc12`: 9.21%; `C=CCNc1nc(-c2ccc(OC)cc2)c(CCC(=O)O)s1`: -4.19%.
As to `CCCc1nn2c(=O)cc(COc3ccc(/C=C(\C#N)C(N)=O)cc3OC)nc2s1`, the “% Inhibition @ 10 uM” value is recorded as -0.495%.
Then `CCCOc1ccc(C2C(C(=O)OC)=CN(Cc3ccc(OC)cc3)C=C2C(=O)OC)cc1OC`, with -3.23%; and `COc1ccc2nc3sc(C(=O)NC4CCCC(C)C4C)cc3cc2c1` (centres unmarked), with 3.07%.
`Cc1ccc(N2C(=O)CC(NCc3ccc(Cl)c(Cl)c3)C2=O)cc1` (centres unmarked): the “% Inhibition @ 10 uM” value was found to be 6.48%.
Regarding `CCc1ccc(CNC(=O)CSc2nnc(C)c3c(C)n(-c4ccccc4)nc23)cc1`, the “% Inhibition @ 10 uM” value is -1.77%.
Next, `Brc1cccc(-c2nnc(CN3CCCCCC3)o2)c1`: -2.23%.
With `c1ccc(Cc2nnc3sc(-c4ccco4)nn23)cc1`, the “% Inhibition @ 10 uM” value was -5.38%.
Next, `O=C(O)CCNc1nc(-c2ccccc2)nc2ccccc12`: 5.29%.
Then `N=C(N)SCCNC1C2CC3CC(C2)CC1C3` (centres unmarked), with -3.62%.
Then `COc1nccnc1NS(=O)(=O)c1ccc(NC(=O)c2ccc([N+](=O)[O-])cc2)cc1`, with 4.93%; and `CCC(C(=O)NCCc1ccc(C)cc1)n1nc(C)c2c(C)n(-c3ccccc3)nc2c1=O` (centres unmarked), with -4.96%.
On to `CC1=C(C(=O)OC2CCC(C)CC2)C(c2ccccc2)NC(=O)N1` (centres unmarked), for which the “% Inhibition @ 10 uM” value was 2.24%.
With `COc1ccccc1-c1n[nH]c(SCc2ccccn2)n1`, the “% Inhibition @ 10 uM” value was determined as 6.69%.
Regarding `Cc1nc2cc(-c3ccccc3)nn2c(O)c1Cl`, the “% Inhibition @ 10 uM” value stood at 3.12%.
Then `CCn1c(=O)c(C(=O)Nc2ccc(Br)cc2)c(O)c2ccccc21`, with -3.04%; and `COC(=O)c1cc2ccc3c(c2oc1=O)CN(Cc1ccco1)CO3`, with 11.2%; and `CN(C)CCNC(=O)Cn1ncc2c3ccccc3nc-2c1O`, with -1.96%.
Next, `CC1CCC(N2CCN(C(=O)c3ccco3)CC2)CC1` (centres unmarked): 1.42%; `O=C(COc1ccc(Cl)cc1)NC1CCCCC1NC(=O)COc1ccc(Cl)cc1` (centres unmarked): -5.92%; `Cc1sc2cc(-c3ccccc3)cn2c1C`: -2.83%.
Regarding `Cc1ccc(-c2nc(Cn3cc(C=C4C(=O)N(C)C(=O)N(C)C4=O)c4ccccc43)no2)cc1`, the “% Inhibition @ 10 uM” value is reported as 0.408%.
For the compound `CC1CC(=O)C2=C(C1)OC(N)=C(C#N)C2c1ccc(Cl)cc1` (centres unmarked), the “% Inhibition @ 10 uM” value is given as -2%.
Next, `N#CC1=C(N)Oc2[nH]nc(-c3ccc(F)cc3)c2C1c1ccoc1` (centres unmarked): 3.92%; `COc1ccccc1Nc1nc(-c2cccs2)cs1`: -8.05%.
Regarding `CC1=C(C(=O)OCCOc2ccccc2)C(c2ccccc2C)CC(=O)N1` (centres unmarked), the “% Inhibition @ 10 uM” value is on record as 8.96%.
Next, `CCc1cccc(NC(=O)c2ccoc2C)c1`: 7.39%; `COc1cc(OC)c(OC)cc1/C=C1\SC(N2CCCC(C)C2)=NC1=O` (centres unmarked): 3.67%.
With `CCOC(=O)c1c(NS(=O)(=O)c2ccc(OC)c(OC)c2)sc2c1CCCC2`, the “% Inhibition @ 10 uM” value is -5.85%.
Regarding `COc1ccc(C)cc1N(CC(=O)N1CCCCC1)S(=O)(=O)c1ccccc1`, the “% Inhibition @ 10 uM” value came to 5.56%.
Next, `O=S(=O)(c1ccc(Cl)cc1)c1nc(Cc2ccccc2)oc1N1CCOCC1`: -11%; `Cc1scc(CN2CC(C)CC(C)C2)c1C` (centres unmarked): 1.5%.
Next, `CN(Cc1ccccc1)C(=O)Cn1ncn2nc(-c3cccs3)cc2c1=O`: -1.3%; `O=C(c1ccc(S(=O)(=O)N2CCOCC2)cc1)N1CCN(c2ccccc2)CC1`: -1.2%; `COc1ccc(C2(O)CN3C=CC=CC3=[N+]2c2ccccc2)cc1` (centres unmarked): 18.1%.
Then `O=C(O)CSc1nc2ccccc2s1`, with -0.274%; and `CC(C)CNS(=O)(=O)c1ccc(CCC(=O)NC2CCCCCC2)cc1`, with -1.02%.
Take `Cc1ccc(/C=C2/SC(=O)N(CC(=O)Nc3ccccc3)C2=O)s1`: the “% Inhibition @ 10 uM” value was -4.13%.
In the case of `COc1ccccc1NC(=O)C1=C(C)N=C2CC(C)(C)CC(O)=C2C1c1cccc(C)c1` (centres unmarked), the “% Inhibition @ 10 uM” value worked out at 2.51%.
Then `CCOC(=O)c1c(S(=O)(=O)N(Cc2ccco2)C2CCCC2)c(C)n(C)c1C`, with -6.64%; and `COc1ccc(CC(=O)N(Cc2ccccc2)C(C)C)cc1`, with 6.53%; and `Cc1nc(O)c(C(c2ccccc2)c2c(O)nc(C)nc2O)c(O)n1`, with -5.05%.
In the case of `Cc1ccc(NC(=O)c2ccccc2OC(F)F)cc1F`, the “% Inhibition @ 10 uM” value was -2.85%.
As to `O=C(O)c1cccc(NCC(=O)c2ccccc2)c1`, the “% Inhibition @ 10 uM” value came out at 0.324%.
Next, `CCc1ccc(C(=O)c2cnc3cc4c(cc3c2N2CCCC2)OCCO4)cc1`: 3.43%; `Clc1ccc(Cl)c(OCCCCN2CCOCC2)c1`: -0.711%; `O=C(c1cc(Cl)ccc1Cl)N1CCN(c2ccc([N+](=O)[O-])cc2)CC1`: -4.32%.
Take `CC(C)(C)OC(=O)N1CCC(c2c(C(=O)NCc3cccnc3)cnn2-c2ccccc2Cl)CC1`: the “% Inhibition @ 10 uM” value is listed as -2.53%.
Then `Cc1ccc(NC(=O)c2cc(F)c(Cl)nc2Cl)cc1`, with 3.96%; and `Cc1c(C(=O)Nc2ccc(C(C)(C)C)cc2)cnn1-c1ccccc1`, with -3.69%.
Then `Cn1ncc(Cl)c1C(=O)Nc1sc2c(c1C(N)=O)CCC2`, with 1.82%.
Then `O=C1N=C(N2CCN(Cc3ccccc3)CC2)S/C1=C\c1ccccc1`, with -2.82%.
On to `O=C(NCCCNC1=NS(=O)(=O)c2ccccc21)c1ccc(F)cc1`, for which the “% Inhibition @ 10 uM” value is 16.8%.
Then `CCSC1=NSC2=NC(=O)/C(=C\c3cccc4ccccc34)C(=N)N12`, with 1.85%.
Next, `CCCO/C(O)=C1\C(C)=NC2=C(C(=O)CCC2)C1c1cccc(Cl)c1` (centres unmarked): -0.631%; `CCOC(=O)c1c(/N=C/c2c(CO)cnc(C)c2O)sc2c1CCCC2`: 10.5%.
Next, `CC1=C(C)CC(C(=O)Nc2cc(Cl)cc(Cl)c2)C(C(=O)O)C1` (centres unmarked): 4.64%; `CC(C(=O)N1CCC(C(N)=O)CC1)n1sc2ccccc2c1=O` (centres unmarked): -9.13%.
Regarding `CCCc1nn(-c2ccc(F)cc2)c(O)c1C=N`, the “% Inhibition @ 10 uM” value is 6.91%.
Then `Cc1ccc(CNCCCSc2nnnn2C)s1`, with 2.25%; and `O=C1c2ccccc2C(=O)c2c1cccc2-n1cnnn1`, with 1.84%.
Next, `COCC(C)NCc1ccc(C)cc1C` (centres unmarked): 1.13%; `Clc1ccc(-c2nnc(-c3ccccc3)o2)cc1`: -3.74%; `Cc1ccc(-c2ccc(=O)n(CCC(=O)NCCN(CC(C)C)CC(C)C)n2)cc1`: -5.43%.
Then `Cc1ccc(C(=O)N/C(=C\c2ccco2)C(=O)NC2CCCC2)cc1C`, with -2.78%; and `COc1ccc(Nc2ccc(C(=O)NC(C)c3ccccc3)cc2[N+](=O)[O-])cc1` (centres unmarked), with -6.52%.
Turning to `CC(NC(=O)c1ccccc1)C1COc2ccccc2O1` (centres unmarked), the “% Inhibition @ 10 uM” value is listed as 5.03%.
Then `N#CC1=C(N)Oc2cc(N)ccc2C1c1cccc(Cl)c1` (centres unmarked), with 3.05%; and `CCOc1ccc(C(=O)Nc2nnc(S(=O)(=O)N(C)Cc3ccc(Cl)cc3)s2)cc1`, with -7.28%; and `Cc1cc(C)n2nc(NCc3ccc(C(C)C)cc3)nc2n1`, with 2.42%.
Then `CCOc1ccc(-c2cc(C(=O)O)c3ccccc3n2)c(OCC)c1`, with -8.36%.
Then `N#Cc1nc(-c2ccccc2)oc1N1CCOCC1`, with 0.317%; and `N#CC1=C(N)Oc2[nH]nc(-c3ccccn3)c2C1c1c(F)cccc1Cl` (centres unmarked), with 4%.
As to `Cc1ccccc1Cc1c(C)nc2nc(SCC(=O)NC3CCCC3)nn2c1C`, the “% Inhibition @ 10 uM” value is recorded as -3.78%.
Next, `CC1CCCN(CCCNC(=O)c2ccc(CS(=O)(=O)c3c(Cl)cccc3Cl)o2)C1` (centres unmarked): -2.85%.
Next, `CCOC(=O)c1[nH]c(C)c(C(=O)N(CC)C2CCCCC2)c1C`: 0.0579%; `N#Cc1cc2c(nc1SCC(N)=O)CCCCC2`: 10%.
Then `CCN(CC)C(=O)C1CCCN(Cc2cc(OC)c3c(c2)OCO3)C1` (centres unmarked), with -4.95%; and `COc1ccc(C(=O)NCc2ccc(C(=O)O)o2)cc1`, with -2.19%; and `NS(=O)(=O)c1ccc(CNC(=O)c2ccccc2Cl)cc1`, with -3.03%.
For `c1ccc(CNc2nn3nnnc3c3ccccc23)cc1`, the “% Inhibition @ 10 uM” value is -2.12%.
Next, `C1=C(c2ccccc2)Nc2ncnn2C1c1cccc2ccccc12` (centres unmarked): -3.95%.
Then `CCOC(=O)N1CCN(c2nc3ccc(Cl)cc3nc2-n2nc(C)cc2C)CC1`, with 0.958%; and `O=C1OC(c2ccccc2)=N/C1=C\c1ccc(OCc2ccccc2)cc1`, with -3.98%; and `Cn1c(/C(C#N)=C/c2c[nH]c3ccccc23)nc2ccccc21`, with 2.26%.
Next, `N#CC1=C(SCc2ccccc2)NC(=O)CC1c1ccc(Cl)cc1` (centres unmarked): -6.18%; `CCC(=O)Nc1nc(-c2ccc(Cl)cc2)nc(C)c1C(C)=O`: 1.62%.

Source of the values: article PMC6919601, “Identification of Plasmodium dipeptidyl aminopeptidase allosteric inhibitors by high throughput screening” (PLoS ONE, 2019).
